Hit rate of the full screen: of about 44,000 compounds, about 340 (0.77%) were called active. Roughly 5% stayed inconclusive and do not appear here. Calls come from the whole dose curve; as a rule, active = well fitted inhibition curve with a large enough effect; inconclusive = small, poorly fitted or top-dose-only effect; inactive = flat fitted curve, though single readings scatter. The list shows a part of the results.
experiment: Acumen qHTS Assay for Inhibitors of the mTORC1 Signaling Pathway in MEF (Tsc2-/-, p53-/-) Cells: Sytravon; conditions: phospho-rpS6 immunofluorescence/PI, 24 h; series mostly up to 38.3 µM; activity change, negative = inhibition: at the top concentration; note: nearly all actives have a fitted effect of over 50% in size
Outline: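 Read-out: phospho-S6 Alexa-488 intensity over PI intensity per well, scored as % active cells using thresholds from rapamycin (7.5 nM) and DMSO controls. Tsc2-/-, p53-/- MEFs exposed to compound for 24 h; PI cell count recorded as viability.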

Activity change, negative = inhibition, inactive:
Cc1ccc2c(c1)N(C(=O)CCC(=O)NCc1cccc(F)c1)CC(C)O2 (stereo not given) -7.94%
CCOc1ccc(-c2cc3c(=O)n(CC(=O)NCc4ccc(F)cc4)ccn3n2)cc1 0%
COc1cccc2cc(-c3nc(-c4ccc(Cl)cc4)cs3)c(=O)oc12 0.62%
CCOC(=O)c1cccc(NC(=O)CCS(=O)(=O)c2ccc3c(c2)CCN3C(=O)CC)c1 -2.22%
O=C(c1ccc(Cl)cc1)n1nc(-c2cccnc2)nc1NCc1ccc(F)cc1 4.63%
CC(=O)c1cccc(NC(=O)c2ccc3nc(Cc4ccccc4)oc3c2)c1 -0.439%
CCCCOc1ccc(C(=O)N(Cc2ccccc2)C2CCS(=O)(=O)C2)cc1 (stereo not given) -0.694%
CCn1c(=O)c2sccc2n2c(CCCC(=O)N3CCN(c4ccc(F)cc4)CC3)nnc12 3.69%
Cc1ccc(O)c(NC(=O)C2=CC(c3ccco3)=NS(=O)(=O)N2C)c1 4.17%
COC(=O)c1ccc(NC(=O)C(=O)NCCc2csc(-c3ccc(F)cc3)n2)cc1 -1.28%
O=C(CSc1ncccc1C(=O)Oc1ccccc1Cl)Nc1ccc(C(F)(F)F)cc1Cl -0.302%
COc1ccc(N2CCN(Cc3nc4c(c(=O)[nH]c(=O)n4C)n3Cc3ccccc3C)CC2)cc1 -12.4%
Cc1csc2nc(COC(=O)CNC(=O)c3ccccc3)cc(=O)n12 1.71%
O=c1oc2ccccc2cc1-c1cn2cc(Cc3cc(Cl)ccc3Cl)sc2n1 -7.33%
Cc1ccc(CN(C(=O)COc2ccccc2[N+](=O)[O-])c2ccccn2)o1 -17.4%
CCN(CC)S(=O)(=O)c1ccc2c(c1)N(CC(=O)Nc1cccc(C#N)c1)C(=O)CO2 -5.65%
CCc1nnc(NC(=O)CSc2nc3c([nH]c4ccccc43)c(=O)n2-c2ccc(Cl)cc2)s1 -4.56%
FC(F)(F)c1cc(-c2ccccc2)nc2cc(-c3ccccc3)nn12 5.29%
Cc1ccc2onc(CC(=O)N3CCN(c4cccc(Cl)c4)CC3)c2c1 0%
COc1ccc(NC(=O)Cn2c(=O)oc3cc(S(=O)(=O)N4CCCCCC4)ccc32)cc1OC -13.8%
Cc1cc(F)ccc1NC(=O)Cn1cc(S(=O)(=O)NC(C)C)c(S(=O)(=O)NC(C)C)c1 0.561%
CCCCSc1nc2sc3c(c2c(=O)n1-c1ccccc1C)CC(C)(C)OC3 8.04%
COc1ccc(NC(=O)CNC(=O)Cn2c(C)cc3ccccc3c2=O)c(OC)c1 5.08%
O=C(c1ccccc1)N1CCN(CCc2ccccn2)CC1 -0.875%
CCOc1ccc(-n2cc(-c3ccccc3)c3c(Nc4cccc(F)c4)ncnc32)cc1 9.14%
COc1cccc(C(=O)Nc2c(C(=O)Nc3ccc(F)cc3)oc3ccccc23)c1OC -0.37%
CCN(Cc1ccccc1)S(=O)(=O)c1cc(Br)cc2c1N(C(=O)C1CC1)CC2 1.25%
Cc1ccc(NC(=O)c2cnc(N3CCCC3)nc2C)cc1F 0%
CCOc1ccc(C(=O)Nc2nnc(SCc3cc(=O)n4ccccc4n3)s2)cc1 5.05%
CC(CNC(=O)CCn1c(=O)c2cccn2c2ccc(F)cc21)c1ccccc1 (stereo not given) -4.63%
CCOC(=O)c1ccccc1NC(=O)CSc1c(C)cnc2c1c(=O)n(C)c(=O)n2C -5.64%
Cc1nc2c(c(C)c1CCC(=O)N1CCN(c3ccccc3)CC1)c(=O)n(C)c(=O)n2C 0.861%
COc1ccc(C2C=C(c3ccccc3)Nc3nc(NS(=O)(=O)c4ccccc4)nn32)cc1 (stereo not given) 1.05%
O=C(Nc1cccc(Cl)c1Cl)c1cc(S(=O)(=O)N2CCCCC2)ccc1F 8.17%
COc1ccc(CCNC(=O)C2CC(=O)N(CCc3ccccc3)C2)cc1OC (stereo not given) -20.8%
CCCCN1CC(c2nc3ccccc3n2CCCCOc2ccccc2C)CC1=O (stereo not given) 2.64%
COc1ccc(OC)c(S(=O)(=O)NCCc2sc(-c3cccnc3)nc2C)c1 -0.909%
CC(=O)OC1=CN(Cc2ccccc2)S(=O)(=O)c2ccccc21 -1.17%
CCCN(Cc1cccs1)C(=O)Nc1cc(C)ccc1OC 0.292%
O=C(c1ccc2c(c1)N(Cc1ccc(Cl)cc1)C(=O)c1ccccc1S2(=O)=O)N1CCCCCC1 0.24%
CCc1nn(CC(=O)Nc2ccc(C)c(F)c2)c(=O)c2cc3cc(C)ccc3n12 -0.468%
COc1ccc(OC)c(CNC(=O)C2CCN(S(=O)(=O)N3CCCCC3)CC2)c1 6.67%
Cc1ccc(-c2onc(C)c2C)cc1S(=O)(=O)NCc1cccs1 -6.9%
COc1ccccc1N1CCN(c2nc3ccc(C(=O)c4ccccc4)cc3n3c(C)nnc23)CC1 1.13%
Cc1ccc(-c2cn3c(n2)sc2cc(C(=O)NCCC4=CCCCC4)ccc23)c(C)c1 -13.2%
CCOc1ccc(S(=O)(=O)NCC(c2ccc(N(C)C)cc2)N2CCCC2)cc1 (stereo not given) 0%
O=C(COc1ccc(F)cc1)Nc1ccc2nc(SCC(=O)N3CCCC3)sc2c1 0%
COc1ccccc1N1CCN(C2C(=O)c3ccccc3N2C(C)=O)CC1 (stereo not given) 3.9%
CCOc1ccc(-c2nnc(SCC(=O)Nc3ccccc3C(F)(F)F)o2)cc1 1.96%
Cc1ccc(N2C(=O)C(CC(=O)Nc3ccc(F)cc3)N(CCC3=CCCCC3)C2=O)cc1 (stereo not given) -6.91%
COCCCNC(=O)c1cn(CC(C)C)c(=O)c2c1c1ccccc1n2C 3.15%
COc1cc(OC)c(NS(=O)(=O)c2cc3c(cc2C)NC(=O)CO3)cc1Cl 5.45%
CC(=O)c1ccc(N2CCN(C(=O)C3CCN(S(=O)(=O)c4ccc(Br)s4)CC3)CC2)cc1 2.18%
COCCn1c(CNC(=O)c2cccc(N(C)C)c2)nc2cccnc21 -10%
CCN(Cc1ccccc1)C(=O)CCS(=O)(=O)c1cc2c(cc1Cl)NC(=O)CO2 4.16%
Cc1nc2scc(C)n2c(=O)c1S(=O)(=O)Nc1cccc(O)c1 -17.3%
CCOC(=O)c1ccc(CN(Cc2ccc(F)cc2)S(=O)(=O)c2ccc(F)cc2)cc1 7.14%
CCCOc1ccc(C2c3c(oc4ccccc4c3=O)C(=O)N2c2ccc(C)cn2)cc1OCC (stereo not given) -0.87%
CCOC(=O)c1c(C)[nH]c(C)c1S(=O)(=O)N1CCC(C(=O)N2CCN(c3cccc(C)c3)C(C)C2)CC1 (stereo not given) -3.16%
Cc1ccc(C)c(NC(=O)Nc2nnc(N(CC(C)C)CC(C)C)s2)c1 -0.78%
Cc1ccc(CCNC(=O)c2ccc3c(=O)n(-c4ccc(C)cc4)c(=O)[nH]c3c2)cc1 -5.03%
Cc1ccccc1S(=O)Cc1ccc(C(=O)NC2CCCCCC2)o1 (stereo not given) 1.6%
CCOc1cccc2sc(NC(=O)c3ccc(S(=O)(=O)N4CCCc5ccccc54)cc3)nc12 -6.85%
COc1ccc2oc(=O)c(-c3nc(-c4cc(OC)c(OC)c(OC)c4)no3)cc2c1 -3.75%
O=C(CNS(=O)(=O)c1cccs1)N1CCN(c2ccccc2Cl)CC1 3.55%
O=C(Cn1cc(SCc2cccc(F)c2)c2ccccc21)N1CCCC1 -19.5%
Cc1ccc(C(=O)Nc2ccc3nc(SCC(=O)N4CCc5ccccc54)sc3c2)cc1 -6.29%
Cc1ccc2c(CNCc3cccc(Cl)c3)c(C(=O)O)n(Cc3ccc(F)cc3Cl)c2c1 3.94%
Cc1cc2oc(C(=O)Nc3sc4c(c3C(=O)NCc3ccco3)CCC4)cc(=O)c2cc1C 1.96%
CSc1ccc(CNC(=O)CCn2ccc3cc(S(=O)(=O)N4CCC(C)CC4)ccc32)cc1 -16.4%
COc1ccc(N2CCN(C(=O)c3cnc(N4CCCC4)nc3C)CC2)cc1 19.6%
COc1ccccc1CNS(=O)(=O)c1ccc2[nH]c3c(c2c1)CCCCC3 -7.79%
CCC(Sc1nc2ccccc2c2nc(CCc3c(C)n[nH]c3C)nn12)C(=O)Nc1ccc(F)cc1 (stereo not given) -2.59%
CC1=C(c2ccc(C)cc2)S(=O)(=O)N(Cc2ccc(C(=O)NCc3cccc(C)c3)cc2)C1=O -3.74%
COc1cccc(-n2nnc3c(sc4nc(C)cc(C)c43)c2=O)c1 -0.787%
Cc1c(Cl)cccc1NC(=O)N1CCC(CN2CCCC2)CC1 -6.23%
COc1ccc(CCNC(=O)CN(c2ccccc2OC)S(=O)(=O)c2ccc(C)cc2)cc1 -16.2%
COC(=O)c1c(NC(=O)c2cc(=O)c3ccc(C)c(C)c3o2)sc2c1CCCC2 6.55%
O=C(Nc1sc2c(c1C(=O)Nc1ccccc1Cl)CCCC2)c1ccccc1F -23.2%
Cc1ccc(NC(=O)CSc2nc(C)c(Cc3ccccc3)c(=O)[nH]2)cc1 1.37%
COC(=O)c1ccc(NC(=O)CSc2nc3ccc(OC)cc3[nH]2)cc1 2.79%
O=C(NCc1ccccc1Br)C1CCCN(C(=O)N2CCOc3ccccc32)C1 (stereo not given) 3.76%
COCCCNC(=O)Cn1c(=O)n(Cc2ccc(C(=O)NCc3ccc(C)cc3)cc2)c(=O)c2ccccc21 -2.04%
COc1ccc(-c2cc3nc(-c4ccccc4)cc(C(F)(F)F)n3n2)cc1 1.94%
COc1ccc(CCNC(=O)Cc2c(C)c3c(cc(C)c4c(C)coc43)oc2=O)cc1 2.87%
COC(=O)c1cc(NC(=O)c2oc(=O)c3ccccc3c2-c2ccccc2)cc(C(=O)OC)c1 2.74%
Cc1ccc(NC(=O)CN2C(=O)CSc3ccc(S(=O)(=O)N4CCCC4)cc32)cc1F -18.9%
COc1cc(OC)c(NC(=O)c2nnn(Cc3ccc(C)cc3)c2N)cc1Cl 0.0607%
Cc1ccc(NC(=O)c2c(NC(=O)c3ccco3)sc3c2CCC(C(C)(C)C)C3)c(C)c1 (stereo not given) 6.15%
O=C(Cc1ccc(F)cc1)NC1CC(=O)N(c2ccc3c(c2)OCCO3)C1 (stereo not given) -12.3%
COc1cccc(-c2cn3c(n2)sc2cc(C(=O)NC4CCCCCC4)ccc23)c1 4.9%
O=C(Cn1ncc2c3ccccc3n(Cc3ccc(Cl)cc3)c2c1=O)N1CCCCCC1 1.03%
COc1ccc(Br)cc1CNC(=O)Cn1c(=O)c2cccn2c2ccc(F)cc21 -12.2%
Cc1ccccc1Cn1cc(CCC(=O)NC(C)c2ccccc2)c2ccccc21 (stereo not given) -3.75%
Cc1cc(C)c2oc(-c3cccc(NC(=O)c4ccc(Br)o4)c3)nc2c1 10%
